This is one part of the list.
Experiments:
Test in all cases: glycan array binding signal (z-score within array); higher = stronger binding
Settings in all cases: glycan notation: IUPAC condensed, linker removed; mutation: E347A
[1] = target: Neu5Ac(a2-6)Gal(b1-4)GlcNAc(b1-2)Man(a1-3)[Gal(b1-4)GlcNAc(b1-2)Man(a1-6)]Man(b1-4)GlcNAc(b1-4)GlcNAc
In short: (§1)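 The Consortium for Functional Glycomics database supplied 3228 glycan arrays, of which those lacking an available protein sequence were dropped. The binding signal, a within-array Z-score, was averaged across arrays of the same protein sequence and across linkers. Negative scores can be read as non-binding.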

[2] = target: Neu5Ac(a2-6)Gal(b1-4)GlcNAc(b1-2)Man(a1-3)[GlcNAc(b1-2)Man(a1-6)]Man(b1-4)GlcNAc(b1-4)GlcNAc
In short: as §1

[3] = target: Neu5Ac(a2-6)Gal(b1-4)GlcNAc(b1-2)Man(a1-3)[GlcNAc(b1-2)Man(b1-4)GlcNAc(b1-2)Man(a1-6)]Man(b1-4)GlcNAc(b1-4)GlcNAc
In short: as §1

[4] = target: Neu5Ac(a2-6)Gal(b1-4)GlcNAc(b1-2)Man(a1-3)[Neu5Ac(a2-6)Gal(b1-4)GlcNAc(b1-2)Man(a1-6)]Man(b1-4)GlcNAc(b1-4)GlcNAc
In short: as §1

[5] = target: Neu5Ac(a2-6)Gal(b1-4)GlcNAc(b1-2)Man(a1-6)[Gal(b1-4)GlcNAc(b1-2)Man(a1-3)]Man(b1-4)GlcNAc(b1-4)GlcNAc
In short: as §1

[6] = target: Neu5Ac(a2-6)Gal(b1-4)GlcNAc(b1-2)Man(a1-6)[GlcNAc(b1-2)Man(a1-3)]Man(b1-4)GlcNAc(b1-4)GlcNAc
In short: as §1

[7] = target: Neu5Ac(a2-6)Gal(b1-4)GlcNAc(b1-3)Gal(b1-4)GlcNAc
In short: as §1

[8] = target: Neu5Ac(a2-6)Gal(b1-4)GlcNAc(b1-3)Gal(b1-4)[Fuc(a1-3)]GlcNAc(b1-3)Gal(b1-4)[Fuc(a1-3)]GlcNAc
In short: as §1

[9] = target: Neu5Ac(a2-6)Gal(b1-4)GlcNAc6S
In short: as §1

Neu5Ac(a2-6)GalNAc = target: Neu5Ac(a2-6)GalNAc
In short: as §1

[10] = target: Neu5Ac(a2-6)GalNAc(b1-4)GlcNAc
In short: as §1

Neu5Ac(a2-8)Neu5Ac = target: Neu5Ac(a2-8)Neu5Ac
In short: as §1

[11] = target: Neu5Ac(a2-8)Neu5Ac(a2-3)Gal(b1-4)Glc
In short: as §1

[12] = target: Neu5Ac(a2-8)Neu5Ac(a2-3)[GalNAc(b1-4)]Gal(b1-4)Glc
In short: as §1

[13] = target: Neu5Ac(a2-8)Neu5Ac(a2-8)Neu5Ac
In short: as §1

[14] = target: Neu5Ac(a2-8)Neu5Ac(a2-8)Neu5Ac(a2-3)Gal(b1-4)Glc
In short: as §1

[15] = target: Neu5Ac(a2-8)Neu5Ac(a2-8)Neu5Ac(a2-3)[GalNAc(b1-4)]Gal(b1-4)Glc
In short: as §1

[16] = target: Neu5Ac(a2-8)Neu5Ac(a2-8)Neu5Ac(a2-8)Neu5Ac(a2-3)[GalNAc(b1-4)]Gal(b1-4)Glc
In short: as §1

[17] = target: Neu5Ac(b2-6)Gal(b1-4)GlcNAc
In short: as §1

Neu5Ac(b2-6)GalNAc = target: Neu5Ac(b2-6)GalNAc
In short: as §1

[18] = target: Neu5Ac9Ac(a2-6)Gal(b1-4)GlcNAc
In short: as §1

[19] = target: Neu5Gc(a2-3)Gal(b1-3)GlcNAc
In short: as §1

[20] = target: Neu5Gc(a2-3)Gal(b1-3)[Fuc(a1-4)]GlcNAc
In short: as §1

Neu5Gc(a2-3)Gal(b1-4)Glc = target: Neu5Gc(a2-3)Gal(b1-4)Glc
In short: as §1

[21] = target: Neu5Gc(a2-3)Gal(b1-4)GlcNAc
In short: as §1

[22] = target: Neu5Gc(a2-3)Gal(b1-4)[Fuc(a1-3)]GlcNAc
In short: as §1

[23] = target: Neu5Gc(a2-6)Gal(b1-4)GlcNAc
In short: as §1

Neu5Gc(a2-6)GalNAc = target: Neu5Gc(a2-6)GalNAc
In short: as §1

[24] = target: Neu5Gc(b2-6)Gal(b1-4)GlcNAc
In short: as §1

B1: Surfactant Protein D (Human); Neck + Carbohydrate Recognition Domain (NCRD) (Homo sapiens) (protein)
chain: MLLFLLSALVLLTQPLGYLEAEMKTYSHRTMPSACTLVMCSSVESGLPGRDRDGREGPRGEKGDPGLPGAAGQAGMPGQAGPVGPKGDNGSVGEPGPKGDTGPSGPPGPPGVPGPAGREGALGKQGNIGPQGKPGPKGEAGPKGEVGAPGMQGSAGARGLAGPKGERGVPGERGVPGNTGAAGSAGAMGPQGSPGARGPPGLKGDKGIPGDKGAKGESGLPDVASLRQQVEALQGQVQHLQAAFSQYKKVELFPNGQSVGEKIFKTAQFVKPFTEAQLLCTQAGGQLASPRSAAENAALQQLVVAKNEAAFLSMTDSKTEGKFTYPTGESLVYSNWAPGEPNDDGGSADCVEIFTNGKWNDRACGAKRLVVCEF
- glycan array binding signal (z-score) [1]: 0.106
- glycan array binding signal (z-score) [2]: -0.301
- glycan array binding signal (z-score) [3]: 0.172
- glycan array binding signal (z-score) [4]: -0.066
- glycan array binding signal (z-score) [5]: -0.165
- glycan array binding signal (z-score) [6]: -0.09
- glycan array binding signal (z-score) [7]: 0.013
- glycan array binding signal (z-score) [8]: -0.185
- glycan array binding signal (z-score) [9]: 0.244
- glycan array binding signal (z-score) (Neu5Ac(a2-6)GalNAc): 0.034
- glycan array binding signal (z-score) [10]: 0.21
- glycan array binding signal (z-score) (Neu5Ac(a2-8)Neu5Ac): -0.039
- glycan array binding signal (z-score) [11]: -0.471
- glycan array binding signal (z-score) [12]: -0.009
- glycan array binding signal (z-score) [13]: -0.103
- glycan array binding signal (z-score) [14]: -0.19
- glycan array binding signal (z-score) [15]: 0.122
- glycan array binding signal (z-score) [16]: 0.449
- glycan array binding signal (z-score) [17]: -0.324
- glycan array binding signal (z-score) (Neu5Ac(b2-6)GalNAc): -0.157
- glycan array binding signal (z-score) [18]: -0.451
- glycan array binding signal (z-score) [19]: 0
- glycan array binding signal (z-score) [20]: -0.071
- glycan array binding signal (z-score) (Neu5Gc(a2-3)Gal(b1-4)Glc): -0.139
- glycan array binding signal (z-score) [21]: -0.097
- glycan array binding signal (z-score) [22]: -0.155
- glycan array binding signal (z-score) [23]: -0.339
- glycan array binding signal (z-score) (Neu5Gc(a2-6)GalNAc): -0.423
- glycan array binding signal (z-score) [24]: -0.406
